Like-named read-outs stand apart in the source and are kept apart here.
Key:
human FcRn [1] = target: T1, human FcRn (Homo sapiens, UniProt P55899); experiment: AlphaLISA blocking assay (IgG binding to FcRn); parameters: purchased Biorbyt orb84388; settings: 10 nM biotinylated human FcRn, pH 6.0
Experimental: The potential of Z variants to inhibit binding of IgG to FcRn was analyzed in an AlphaLISA assay with an EnSpire multiplate reader 2300 (Perkin Elmer). Human IgG (Roactemra) was immobilized on AlphaLISA acceptor beads (Perkin Elmer, cat. no. 6772002) according to the manufacturer's recommendations. Stepwise serial dilutions 1:3 of His-tagged Z variants to final concentrations of 250 nM to 38 pM were made in a 384-well plate (Perkin Elmer, cat. no. G6005350) and incubated for 45 min with 10 nM biotinylated human FcRn (Biorbyt, cat. no. orb84388; biotinylated essentially as described in Example 2) in AlphaLISA buffer (Perkin Elmer, cat. no. AL000F) adjusted to pH 6.0 using HCl. IgG-coated Acceptor beads were added to a final concentration of 10 μM and incubated for 45 min. Finally, streptavidin coated Donor beads (Perkin Elmer, cat. no. 6772002) were added to a final concentration of 40 μg/ml and incubated for 30 min. All incubations were performed at RT in the dark. The plate was analyzed in the EnSpire instrument and the IC50 values were calculated using GraphPad Prism 5.
The potential of Z variants to inhibit binding of IgG to FcRn was analyzed in the AlphaLISA assay described in Example 3.

[2] = CD analysis with variable temperature measurement; format: physicochemical; settings: His6-tagged Z variants 0.5 mg/ml in PBS; CD at 221 nm, 20 to 90° C.
Experimental: Purified His6-tagged Z variants were diluted to 0.5 mg/ml in PBS. For each diluted Z variant, a CD spectrum at 250-195 nm or 250-190 nm was obtained at 20° C. In addition, a variable temperature measurement (VTM) was performed to determine the melting temperature (Tm). In the VTM, the absorbance was measured at 221 nm while the temperature was raised from 20 to 90° C., with a temperature slope of 5° C./min. A new CD spectrum was obtained at 20° C. after the heating procedure in order to study the refolding ability of the Z variants. The CD measurements were performed on a Jasco J-810 spectropolarimeter (Jasco Scandinavia AB) using a cell with an optical path-length of 1 mm.

[3] = target: T2, mouse FcRn-eGFP transduced HeLa cells (Mus musculus, UniProt Q61559, INS109QKRG); experiment: Flow cytometry binding of Alexa647 labeled Z variants to FcRn-eGFP HeLa cells; format: cell-based; settings: 620 nM Alexa647 labeled His6-tagged Z variant; pH 6.0
T2 construct: expressed in transfected cells; host or cells: HeLa cervix adenocarcinoma cells (lentiviral transduction), formaldehyde-fixed and saponin-permeabilised
T2 sequence (Q61559 with tags, fused parts or gaps INS109QKRG): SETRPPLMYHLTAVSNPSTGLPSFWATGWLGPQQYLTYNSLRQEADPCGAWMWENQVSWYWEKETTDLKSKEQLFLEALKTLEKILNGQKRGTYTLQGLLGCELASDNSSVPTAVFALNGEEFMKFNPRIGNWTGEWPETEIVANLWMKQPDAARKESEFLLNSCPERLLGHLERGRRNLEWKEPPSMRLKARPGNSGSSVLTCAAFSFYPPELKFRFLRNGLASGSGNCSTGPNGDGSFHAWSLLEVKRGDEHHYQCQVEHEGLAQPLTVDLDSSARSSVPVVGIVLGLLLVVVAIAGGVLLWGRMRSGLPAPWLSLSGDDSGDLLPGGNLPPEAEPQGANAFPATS
T2 sequence (P01887 21-119 partner): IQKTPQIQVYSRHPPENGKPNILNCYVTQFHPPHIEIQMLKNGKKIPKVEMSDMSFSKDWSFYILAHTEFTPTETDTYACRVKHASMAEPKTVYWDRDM
Experimental: (§1) hFcRn-eGFP and mFcRn-eGFP HeLa cells were harvested by trypsination and washed twice in PBS at pH 6.0 before counting. 100,000 cells were pipetted per well of a v-bottomed 96 well plate (Nunc, cat no 277143) and the cells in the plate were subsequently pelleted at 1,700 rpm for 4 min at 4° C. The supernatants were removed and the cells were fixed with 50 μl of 2% formaldehyde (Sigma Aldrich, cat. no. F8775) in PBS at pH 6.0 for 10 min at RT. […] Transduced HeLa cells, incubated with buffer alone, were used as control. The cells were incubated for 1 h at 8° C. on a shaker in the dark, washed with 2×100 μl PBSC and resuspended in 180 μl of PBS pH 6.0 plus 1% BSA (fraction V, Merck, cat. no. 1.12018.0100). 10,000 cells/well were analyzed in a Gallios Flow Cytometer (Beckman Coulter) and the data was analyzed using Kaluza software (Beckman Coulter).

[4] = target: T3, human FcRn-eGFP transduced HeLa cells (Homo sapiens, UniProt P55899); experiment: as above; format: cell-based; settings: 620 nM Alexa647 labeled His6-tagged Z variant; pH 6.0
T3 construct: expressed in transfected cells; host or cells: HeLa cervix adenocarcinoma cells (lentiviral transduction), formaldehyde-fixed and saponin-permeabilised
Experimental: as §1

hFcRn = target: T4, hFcRn (Homo sapiens, UniProt P55899); experiment: Biacore 3000 affinity, one site binding saturation model; settings: His6-tagged, 25° C.
T4 construct: made in house; host or cells: human SKOV-3 cells, lentivirally transduced, secreted; purified on immobilized human IgG
Experimental: (§2) In a separate experiment, the affinity of the interactions of Z variants to hFcRn (SEQ ID NO:1065) and mFcRn (SEQ ID NO:1070), respectively, was measured at both pH 6.0 and pH 7.4 on a Biacore 3000 instrument (GE Healthcare). hFcRn and mFcRn were produced essentially as described in Example 1 but using mouse 3T3 cells instead of human SKOV-3 cells for production of mFcRn, and immobilized on separate flow cells on a CM5 chip in acetate buffer at pH 4.65. The immobilization level was approximately 1000 RU for both receptors. A reference flow cell was created by activation and deactivation. 0.005% PCT pH 6.0 or 7.4 was used as running buffer and for dilution of the analytes. All analyses were performed at 25° C. […] The affinities were derived using GraphPad Prism 5 software, using a one site binding saturation model.

mFcRn = target: T5, mFcRn (Mus musculus, UniProt Q61559, INS109QKRG); experiment: as above; settings: His6-tagged, 25° C.
T5 construct: made in house; host or cells: mouse 3T3 cells
T5 sequence (Q61559 with tags, fused parts or gaps INS109QKRG): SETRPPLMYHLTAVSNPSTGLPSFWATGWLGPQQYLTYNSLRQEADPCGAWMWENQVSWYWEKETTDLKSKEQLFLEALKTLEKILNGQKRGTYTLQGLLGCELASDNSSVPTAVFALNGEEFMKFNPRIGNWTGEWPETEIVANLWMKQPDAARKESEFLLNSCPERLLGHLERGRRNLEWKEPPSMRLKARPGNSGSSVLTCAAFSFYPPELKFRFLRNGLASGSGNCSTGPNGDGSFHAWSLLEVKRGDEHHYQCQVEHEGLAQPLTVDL
T5 sequence (P01887 21-119 partner): T2 sequence (P01887 21-119 partner)
Experimental: as §2

human FcRn [5] = target: T1, human FcRn; experiment: Biacore binding at pH 6.0 and dissociation at pH 6.0 vs pH 7.4; parameters: made in house; host or cells: human SKOV-3 cells, lentivirally transduced, secreted; purified on immobilized human IgG; settings: comparison among the seventeen Z variants
Experimental: The interaction of FcRn binding His6-tagged Z variants with human FcRn was analyzed in a Biacore 2000 instrument (GE Healthcare). Human FcRn was immobilized in a flow cell on the carboxylated dextran layer of a CM5 chip surface (GE Healthcare). The immobilization was performed using amine coupling chemistry according to the manufacturer's protocol and using HBS-EP (GE Healthcare) as running buffer. One flow cell surface on the chip was activated and deactivated for use as blank during analyte injections. In the two binding experiments presented below, McIlvaines phosphate-citrate buffer pH 6.0 supplemented with 0.005% Tween-20 (0.005% PCT) was used as running buffer. In all experiments, a flow rate of 50 μl/min was used.
In one experiment, the dissociation at pH 6.0 was compared to the dissociation at pH 7.4. His6-tagged Z variants and a human monoclonal IgG1 were diluted in running buffer to a final concentration of 250 nM or 2.5 nM, respectively, and injected over the FcRn chip for 1 minute using the co-inject procedure. The second injection of the co-inject procedure, representing the dissociation phase of the interactions, contained either running buffer (pH 6.0) or 0.005% PCT pH 7.4. […] IgG was allowed to dissociate for 4 minutes before equilibration. […] The results were analyzed in BiaEvaluation software 4.1 (GE Healthcare). […]

human FcRn [6] = target: T1, human FcRn; experiment: Biacore kinetic analysis, maturated Z variants; format: binding; parameters: purchased Biorbyt orb84388; settings: pH 6.0, His6-tagged, approximate
Experimental: The interaction of FcRn binding His6-tagged Z variants with human FcRn was analyzed in a Biacore 2000 instrument essentially as described in Example 3. Human FcRn purchased from Biorbyt (cat. no. orb84388) was used as target protein. The analytes were injected during 2 minutes at 30 μl/min. The dissociation phase was 4 minutes and the equilibration time between the analyte injections was 30 minutes.
In another experiment, approximate kinetic constants (kon and koff) and affinities (KD) were determined for a subset of Z variants. Injected concentrations were 540 nM, 180 nM, 60 nM, 20 nM and 6.7 nM.

[7] = His6-tagged primary Z variants and dimers
[8] = pH 6.0, read-out: KD (M) mFcRn pH 6.0
[9] = pH 7.4, read-out: KD (M) mFcRn pH 7.4
[10] = maturated His6-tagged monomeric Z variants

T4 sequence (P55899 24-290): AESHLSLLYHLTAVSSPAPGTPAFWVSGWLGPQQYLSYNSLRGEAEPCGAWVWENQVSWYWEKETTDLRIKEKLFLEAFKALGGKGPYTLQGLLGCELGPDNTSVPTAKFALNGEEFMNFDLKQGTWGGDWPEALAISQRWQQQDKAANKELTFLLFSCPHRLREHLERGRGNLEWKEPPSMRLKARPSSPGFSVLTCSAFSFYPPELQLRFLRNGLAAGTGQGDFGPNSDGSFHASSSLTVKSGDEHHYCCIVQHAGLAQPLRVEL
T4 sequence (P61769 21-119 partner): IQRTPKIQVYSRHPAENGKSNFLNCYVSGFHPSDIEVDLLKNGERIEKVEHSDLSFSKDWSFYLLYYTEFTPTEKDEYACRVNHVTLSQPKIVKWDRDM
T3 sequence (P55899 24-365): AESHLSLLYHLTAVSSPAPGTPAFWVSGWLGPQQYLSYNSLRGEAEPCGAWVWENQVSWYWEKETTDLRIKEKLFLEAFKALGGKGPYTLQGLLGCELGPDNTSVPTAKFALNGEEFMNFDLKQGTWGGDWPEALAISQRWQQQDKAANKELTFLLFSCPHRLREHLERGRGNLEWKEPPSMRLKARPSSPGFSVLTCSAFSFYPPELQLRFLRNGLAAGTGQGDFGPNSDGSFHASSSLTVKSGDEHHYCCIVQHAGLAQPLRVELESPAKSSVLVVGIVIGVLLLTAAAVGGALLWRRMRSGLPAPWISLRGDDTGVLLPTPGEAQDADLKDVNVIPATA
T3 sequence (P61769 21-119 partner): as the sequence (P61769 21-119 partner) above

Z07909: FcRn binding Z variant, 58 amino acid residues, from phage display selection (VDAKYAKERQEAAHEIRWLPNLTFDQRVAFIVKLLDDPSQSSELLSEAKKLNDSQAPK; Engineered FcRn binding polypeptide)
IC50 (human FcRn [1]; [7]): 46 nM | Tm (° C.) [2]: 56 °C

Z07930: FcRn binding Z variant, 58 amino acid residues, from phage display selection (VDAKYAKESDSAVHEIRWLPNLTFDQRVAFIHKLLDDPSQSSELLSEAKKLNDSQAPK; Engineered FcRn binding polypeptide)
binding to HeLa cells displaying murine FcRn-eGFP [3]: capable of binding | binding to HeLa cells displaying human FcRn-eGFP [4]: capable of binding | IC50 (human FcRn [1]; [7]): 42 nM | Tm (° C.) [2]: 56 °C

Z07960: FcRn binding Z variant, 58 amino acid residues, from phage display selection (VDAKYAKEFESAAHEIRWLPNLTYDQRVAFIHKLSDDPSQSSELLSEAKKLNDSQAPK; Engineered FcRn binding polypeptide)
Kd (hFcRn; pH 6.0, read-out: KD (M) hFcRn pH 6.0): 5e-08 M | Kd (hFcRn; pH 7.4, read-out: KD (M) hFcRn pH 7.4): > 1e-06 M | Kd (mFcRn; [8]): 3.5e-07 M | Kd (mFcRn; [9]): > 5e-06 M | binding to HeLa cells displaying murine FcRn-eGFP [3]: capable of binding | binding to HeLa cells displaying human FcRn-eGFP [4]: capable of binding | IC50 (human FcRn [1]; [7]): 42 nM | Tm (° C.) [2]: 58 °C

Z10109: FcRn binding Z variant, 58 amino acid residues, from phage display selection (VDAKYAKEANTAAHEIRWLPNLTFDQRVAFIRKLWDDPSQSSELLSEAKKLNDSQAPK; Engineered FcRn binding polypeptide)
IC50 (human FcRn [1]; [7]): 57 nM | Tm (° C.) [2]: 61 °C

Z10193: FcRn binding Z variant, 58 amino acid residues, from phage display selection (VDAKYAKEWMRAAHEIRWLPNLTFDQRVAFIHKLEDDPSQSSELLSEAKKLNDSQAPK; Engineered FcRn binding polypeptide)
Kd (mFcRn; [8]): 9.5e-08 M | Kd (mFcRn; [9]): > 5e-07 M | dissociation curves (human FcRn [5]): slowest dissociation curves | IC50 (human FcRn [1]; [7]): 12 nM | Tm (° C.) [2]: 59 °C

Z13577: FcRn binding Z variant from the maturated library (VDAKYAKEWHQAAHEIRWLPNLTFDQRVAFIHKLRDDPSQSSELLSEAKKLNDSQAPK; Engineered FcRn binding polypeptide)
IC50 (human FcRn [1]; [10]): 12 nM | Kd (human FcRn [6]): 13 nM | koff (human FcRn [6]): 0.004 s⁻¹ | kon (human FcRn [6]): 300000 M⁻¹ s⁻¹

Z13621: FcRn binding Z variant from the maturated library (VDAKYAKEADAAGHEIRWLPNLTFDQRVAFIHKLRDDPSQSSELLSEAKKLNDSQAPK; Engineered FcRn binding polypeptide)
IC50 (human FcRn [1]; [10]): 3.2 nM | Kd (human FcRn [6]): 6 nM | koff (human FcRn [6]): 0.0037 s⁻¹ | kon (human FcRn [6]): 640000 M⁻¹ s⁻¹
